In publication PMC4336329 (PLoS ONE, 2015):
In all, about 310,000 compounds went through this assay and about 14,000 (4.5%) showed an effect of 50% or more. The effect is printed as a negative number. This is one part of the list.

What follows are molecules tested against human ether-à-go-go-related gene (hERG) potassium channel (human, UniProt Q12809) (assay: primary screen, population patch clamp on CHO cells stably expressing hERG).
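Also: peak tail current of the secondary pulse compared with the same well before compound.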

human ether-à-go-go-related gene (hERG) potassium channel, sequence (Q12809 whole entry, looked up): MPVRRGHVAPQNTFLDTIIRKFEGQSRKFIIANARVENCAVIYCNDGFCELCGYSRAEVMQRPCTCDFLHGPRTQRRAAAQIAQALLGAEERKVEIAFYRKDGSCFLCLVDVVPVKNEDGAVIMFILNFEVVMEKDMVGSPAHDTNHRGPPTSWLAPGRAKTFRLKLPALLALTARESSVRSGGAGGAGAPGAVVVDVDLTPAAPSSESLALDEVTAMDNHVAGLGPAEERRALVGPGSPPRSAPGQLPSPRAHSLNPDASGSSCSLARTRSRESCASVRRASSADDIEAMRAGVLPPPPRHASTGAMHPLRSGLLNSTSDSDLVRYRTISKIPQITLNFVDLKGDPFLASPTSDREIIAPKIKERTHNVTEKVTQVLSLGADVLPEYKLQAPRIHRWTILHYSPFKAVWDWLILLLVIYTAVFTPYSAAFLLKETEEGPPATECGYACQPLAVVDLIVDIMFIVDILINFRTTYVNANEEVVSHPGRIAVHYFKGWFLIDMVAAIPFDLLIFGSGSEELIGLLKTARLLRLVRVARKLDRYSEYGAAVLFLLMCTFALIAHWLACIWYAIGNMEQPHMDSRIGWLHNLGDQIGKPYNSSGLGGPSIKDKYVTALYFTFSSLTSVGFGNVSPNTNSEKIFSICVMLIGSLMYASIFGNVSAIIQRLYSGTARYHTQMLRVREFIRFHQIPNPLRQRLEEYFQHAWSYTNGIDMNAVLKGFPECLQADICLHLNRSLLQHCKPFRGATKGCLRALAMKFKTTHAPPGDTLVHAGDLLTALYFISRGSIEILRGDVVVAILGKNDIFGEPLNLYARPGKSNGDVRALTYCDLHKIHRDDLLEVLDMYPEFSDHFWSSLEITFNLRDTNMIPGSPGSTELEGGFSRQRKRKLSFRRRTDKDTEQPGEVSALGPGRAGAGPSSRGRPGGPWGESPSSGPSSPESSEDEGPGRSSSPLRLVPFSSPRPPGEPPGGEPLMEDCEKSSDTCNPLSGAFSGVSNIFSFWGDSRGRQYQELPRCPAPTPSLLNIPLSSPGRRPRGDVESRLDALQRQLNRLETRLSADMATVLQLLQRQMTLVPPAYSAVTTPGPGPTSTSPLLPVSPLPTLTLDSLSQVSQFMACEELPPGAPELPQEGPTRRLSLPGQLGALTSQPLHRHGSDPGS

SMILES	hERG current change (%, negative = inhibition) at 10uM [%]
O=C(N/N=C/c1ccccn1)c1cc(C2CC2)[nH]n1	7.51
Cc1ccc(S(=O)(=O)N(C)c2ccc(C(=O)N(CC(C)C)C3CCS(=O)(=O)C3)cc2)cc1 (centres unmarked)	-14.6
COc1ccc([N+](=O)[O-])cc1N(CC(O)CN(C)C)S(=O)(=O)c1ccccc1 (centres unmarked)	5.54
CCCCC(=O)Nc1nnc(/C=C/c2ccc(OC)cc2)s1	4.22
CCCCn1nnc(NC(=O)CCC)n1	-2.04
O=C(CCc1nc2ccccc2c(=O)[nH]1)NCC(=O)Nc1ccc(F)c(F)c1	-7.59
Cc1cc(C)cc(N(C(=O)c2csnn2)C(C(=O)NC(C)(C)C)c2cccnc2)c1 (centres unmarked)	-20.5
CC(=O)c1c(N2CCN(c3ccc(F)cc3)CC2)nc(=S)n(Cc2ccccc2)c1C	-41.7
O=C(NCc1ccccc1Cl)c1ccc2c(=O)n(CC3CCCO3)c(=S)[nH]c2c1 (centres unmarked)	10.1
CN(CCOc1ccc(-c2ccn(S(=O)(=O)c3c(Cl)cccc3Cl)n2)cc1)c1ccccn1	12.3
Cc1ccc(N(CC(=O)NC(C)C)C(=O)CCC(=O)Nc2nccs2)cc1C	-3.19
CC1CCCCC12NC(=O)N(CC(=O)N1CCN(c3ncccn3)CC1)C2=O (centres unmarked)	11.2
O=C(C[n+]1ccccc1)N/N=C/c1ccccc1C(F)(F)F.[Cl-]	11.3
O=C(Cn1cnc2c(cnn2-c2ccccc2)c1=O)c1ccc(Cl)cc1	-8.8
CC1(C)CC(=O)C2(CC3=C(CC(C)(C)CC3=O)O2)C(=O)C1	-10.6
O=C(CNC(=O)c1ccc(Cl)cc1Cl)OCC(=O)N1CCCC1	-3.73
COc1ccc(CC/C(=N\O)C2(O)CCCCC2)cc1	6
CCN(CC(=O)Nc1ccccc1OC)C(=O)c1ccc(NS(=O)(=O)c2ccc(C(C)=O)cc2)cc1	0.13
COc1cc(/C=C2/SC(=O)N(Cc3ccccc3Cl)C2=O)ccc1OCc1ccncc1	6.3
O=C(Nn1cnc2ccccc2c1=O)c1ccccc1F	1.78
Cc1ccc(SCCNC(=O)c2cccc([N+](=O)[O-])c2C)cc1	-27.6
CCOc1ccccc1-n1c(SCC(N)=O)nnc1-c1ccc(O)cc1	-4.86

SMILES	hERG current change (%, negative = inhibition) at 10uM [%]
COc1ccc(CCNC(=O)CCn2cccc2)cc1OC	1.6
Cc1onc(-c2c(F)cccc2Cl)c1C(=O)Nc1nccs1	-5.56
S=c1[nH]nc(-c2ccco2)n1/N=C/c1cccs1	35.2
COc1ccc(OC)c(S(=O)(=O)N2CCCC2C(=O)N2CCc3ccccc3C2)c1 (centres unmarked)	-42.4
O=C(NC(=S)N1CCOCC1)c1ccccc1Cl	12.7
CCn1c(SCC(=O)Nc2ccccc2N2CCCCC2)nc2c1c(=O)n(C)c(=O)n2C	-42.8
CCCOc1ccc(Cc2c(O)nc(SC)[nH]c2=O)cc1C	1.85
CCCCn1c(N)c(N(CCOC)C(=O)COC(=O)COc2cc(C)c(Cl)cc2C(C)C)c(=O)[nH]c1=O	-44.1
Cc1ccc(N(C(C)C(=O)O)S(=O)(=O)c2cccnc2)cc1 (centres unmarked)	17
CCOC(=O)c1c(-c2ccc(C)cc2)csc1NC(=O)CCN1CCOCC1	-42.1
CC(OC(=O)CCc1nc2ccccc2c(=O)[nH]1)C(=O)Nc1ccc2c(c1)OCO2 (centres unmarked)	10.9
OC(CN1CCOCC1)C12CC3CC(CC(C3)C1)C2 (centres unmarked)	2.88
O=C(NCc1cccnc1)c1nc(-c2cccs2)no1	-0.749
CC(C)n1cnc2c(Nc3ccc(C(=O)O)cc3)nc(Cl)nc21	12.3
O=C(Nc1ccc2c(c1)nc1n2CCOC1)c1ccccc1	-2.73
Nc1nc(SCC(=O)Nc2cc(S(=O)(=O)N3CCOCC3)ccc2Cl)n[nH]1	12.3
O=C(CCN1C(=O)c2ccccc2C1=O)N1CCN(C(=O)c2ccccc2)CC1	0.00878
CCN1CCN(C(C)C(=O)NC2CCCCC2)CC1.O=C(O)C(=O)O (centres unmarked)	7.26
CC(=O)c1ccc(NC(=O)Nc2ccc3c(c2)N(C)C(=O)CS3)cc1	4.44
C/C(=N\NC(=O)CSc1nc(C)cc(C)n1)c1cccs1	-39.5
COc1ccc(-c2csc(NC(=S)NC(=O)c3cc4ccccc4o3)n2)cc1Br	19.9
CCOc1ccc2[nH]c(=O)c(CN(Cc3ccc(F)cc3)C(=O)N3CCCC3)cc2c1	11.1
